The campaign covered roughly 52,000 compounds. About 4,300 (8.3%) were called active. Cut-off read from the data, not from the text of the source: active = survival mostly below about 52% (no sharp cut-off); inactive = mostly above about 56%. Some of the results follow.

In the test the test system is DeltatarO mutant. Put plainly: S. aureus survival, RN4220 and DeltatarO strains – OD600, teichoic acid synthesis inhibitors, primary screen (AID 463173). The settings on record: S. aureus RN4220 wild type/DeltatarO growth, OD600, 18 h, active compounds read low, screened at 18.75 µg/mL (by protocol).
With `Cc1cc(C(=O)Nc2c(C)cccc2C)n(-c2ccccc2)n1`, the survival is inactive: 95%.
As to `CC(C)CCN(C(=O)Nc1ccc(Cl)c(Cl)c1)C1CCN(C(C)C)CC1`, the survival is inactive: 83%.
With `O=C(OCc1cc(=O)n2nc(-c3cccs3)sc2n1)c1cccc(F)c1`, the survival is inactive: 77%.
For the compound `COCCCNC(=O)c1ccc(Cn2c(SCc3ccc(F)cc3)nc3cccnc32)cc1`, the survival is inactive: 49%.
Then `CCOC(=O)c1sc2ncn(CC(=O)Nc3cc(Cl)ccc3C)c(=O)c2c1C`, with inactive: 62%; and `CCOC(=O)Nc1ccc2c(c1)N(C(=O)CN1CCOCC1)c1ccccc1CC2`, with inactive: 69%.
Consider `CCOC(=O)c1cc2c(=O)n3ccccc3nc2n(CC2CCCO2)c1=NC(=O)c1ccccc1Br` (stereo unspecified), for which the survival is active: 47%.
Then `CC(=O)Nc1cccc(NC(=O)CSc2nccn2Cc2ccc3c(c2)OCO3)c1`, with inactive: 84%; and `CC(=O)c1ccc(N2CCN(C(=O)c3cc(S(=O)(=O)N4CCCCCC4)cn3C)CC2)cc1`, with inactive: 101%; and `Cc1ccc2c(c1)cc(C(=O)NCc1ccccc1C)n2C`, with inactive: 81%.
Consider `CCc1cnc2c(c1SCC(=O)Nc1ccc(C(=O)OC)cc1)c(=O)n(C)c(=O)n2C`, for which the survival is inactive: 88%.
Regarding `CC(C)Oc1ccc(CNC(=O)C2CCN(Cc3cc4ccccc4n3Cc3ccccc3)CC2)cc1`, the survival is inactive: 67%.
Take `O=C(COC(=O)c1cccc(NC(=O)c2ccc(Br)cc2)c1)c1ccc(Cl)cc1`: the survival was inactive: 72%.
In the case of `CC(C)(C)c1ccc(OCCOCCn2c(-c3ccc(Cl)cc3)nc3ccccc3c2=O)cc1`, the survival was inactive: 115%.
With `O=C(O)c1ccc(C(=O)c2cc(C(=O)O)ccc2C(=O)O)cc1`, the survival is inactive: 75%.
Turning to `CCn1c2ccccc2c2cc(NC(=O)COc3cc(C)ccc3C)ccc21`, the survival is active: 29%.
Consider `Cc1cccc(Cn2c(COc3ccccc3)nc3ccccc32)c1`, for which the survival is active: -2%.
Then `CCCCCn1c(=O)[nH]c2cc(C(=O)NC(C)CC)ccc2c1=O` (stereo unspecified), with inactive: 71%; and `COc1ccc(CCNC(=O)c2cc(=O)c3ccc(C)cc3o2)cc1OC`, with inactive: 62%; and `COCCn1c(=O)[nH]c2cc(C(=O)Nc3ccc(OC)cc3)ccc2c1=O`, with inactive: 138%.
As for `CCOc1ccc(CNC(=O)c2ccc3c(c2)nc2n3CCCCC2)cc1`, the survival is inactive: 84%.
`CCOC(=O)CNC(=O)c1cc2c(=O)n3cccc(C)c3nc2n1C`: the survival was inactive: 102%.
Then `CCc1nn2c(=O)c(S(=O)(=O)Nc3ccc(C)c(C)c3)c(C)nc2s1`, with inactive: 66%.
For `O=C1OC2(CCCC2)OC(=O)C1=Cc1ccc(N2CCOCC2)o1`, the survival was inactive: 66%.
As for `O=C(/C=C/c1ccccc1)Nc1nc2n(n1)C(c1ccc(F)cc1)C=C(c1ccccc1)N2` (stereo unspecified), the survival was active: 44%.
Turning to `CC(C)Oc1ccc(CNC(=O)c2ccc(NC(=O)N3CC(C)Sc4ccccc43)cc2)cc1` (stereo unspecified), the survival is inactive: 88%.
Then `C=CCNC(=O)Cc1c(O)c2ccccc2[nH]c1=O`, with inactive: 101%; and `Cc1cc(C)c(S(=O)(=O)NCC(c2ccco2)S(=O)(=O)c2cccs2)c(C)c1` (stereo unspecified), with active: 25%; and `Cc1cc(Br)cc2c1N(Cc1ccccc1OC(C)C)C(=O)C2=O`, with active: 22%.
As for `CCCCOc1ccc(CSCCN=C(N)N)cc1`, the survival is active: 1%.
On to `Cc1cc2oc(C(=O)N(Cc3ccco3)Cc3ccccc3Cl)c(C)c2cc1C`, for which the survival is active: 43%.
Then `OCCc1c[nH]c2ccc(OCc3ccccc3)cc12`, with inactive: 92%; and `CCOC(=O)c1ccccc1NC(=O)c1cnc(N2CCOCC2)c2ccccc12`, with inactive: 90%.
Then `Cc1ccc(SCC(=O)Nc2ccc3oc(-c4ccccc4F)nc3c2)cc1`, with active: 57%; and `CCc1cccc(C)c1NC(=O)c1cnn(-c2ccc(OC)cc2)c1C1CCN(C(=O)OC(C)(C)C)CC1`, with inactive: 85%.
Then `COc1ccc(NC(=O)c2nc(-c3ccc(C)cc3)n3c2CCCCC3)c(OC)c1`, with inactive: 63%.
Regarding `O=C1OCC2=C1C(c1ccc(F)cc1)Sc1ccccc1N2` (stereo unspecified), the survival was inactive: 88%.
Then `CCOCCc1nn2c(=O)cc(COC(=O)c3ccc(NC(=O)C(C)(C)C)cc3)nc2s1`, with inactive: 83%; and `COc1ccc(C(=O)CCC(=O)Nc2ccc(C)c(Cl)c2)cc1`, with inactive: 84%; and `CC1CCCN(CCCNC(=O)c2cc3c(Cl)nc4ccccc4c3s2)C1` (stereo unspecified), with inactive: 125%.
In the case of `CC(=O)Nc1cccc(NC(=O)CCn2cnc3cc(C)c(C)cc32)c1`, the survival was inactive: 62%.
As to `COc1cc(Cl)c(C)cc1Nc1nc2ccccc2n2cnnc12`, the survival was inactive: 117%.
As for `Cc1ccc(C2c3[nH]c4ccccc4c3CCN2C(=O)CSCc2ccc(F)cc2)cc1` (stereo unspecified), the survival is inactive: 93%.
For the compound `O=C(NCCc1csc(-c2ccc(F)cc2)n1)c1cccc(F)c1`, the survival is inactive: 91%.
Then `COc1ccccc1CNC(=O)C1CCN(S(=O)(=O)c2cn(C)cn2)CC1`, with active: 0%; and `CCc1ccccc1N(C)C(=O)c1sc2nc3n(c(=O)c2c1C)CCCCC3`, with inactive: 50%; and `COc1ccc(N2CC(NC(=O)/C=C\c3ccccc3)CC2=O)cc1OC` (stereo unspecified), with inactive: 95%.
Then `Cc1nn(C)c(C)c1CCNC(=O)Nc1ccccc1C(F)(F)F`, with active: 6%; and `CCN(CC)c1nn2c(=O)c(C(=O)NCc3ccc(N(C)C)cc3)cnc2s1`, with inactive: 82%.
Then `COc1ccc(CNC(=O)Cn2c(-c3ccccc3)cc(C(C)=O)c2C)cc1OC`, with inactive: 92%.
In the case of `CCC(=O)N1CCc2cc(S(=O)(=O)NC(C(=O)NCCc3cccc(C)c3)C(C)C)ccc21` (stereo unspecified), the survival was inactive: 86%.
Then `O=C(NCc1cccs1)c1ccc(CSc2nc3ccncc3n2Cc2ccccc2F)cc1`, with inactive: 103%; and `CC(=O)O/N=C1/CC(C)(C)Cc2onc(C)c21`, with inactive: 76%.
For the compound `Cc1ccc(N2CCN(S(=O)(=O)c3ccc(-n4cnnn4)cc3)CC2)c(C)c1`, the survival was inactive: 81%.
Consider `COc1ccc(-n2c(=O)c3c4c(sc3n(Cc3ccc(C(C)(C)C)cc3)c2=O)CCC4)c(OC)c1`, for which the survival is inactive: 68%.
For the compound `CCn1nnc2cc(C(=O)Nc3ccc(OC)cc3)ccc21`, the survival is inactive: 102%.
Turning to `Cc1ccc(Cl)cc1N1CCN(C(=O)c2ccc3c(c2)N(Cc2ccccc2)CCS3)CC1`, the survival was inactive: 74%.
On to `Cc1ccc(-c2ccc(CCC(=O)O)n2-c2cccc(C)c2C)cc1`, for which the survival was active: 34%.
For `Cc1ccc(C)c(N2CCN(C(=O)CN3C(=O)COc4ccc(S(=O)(=O)N5CCC(C)CC5)cc43)CC2)c1`, the survival is inactive: 75%.
Take `CCOc1ccc(Br)cc1S(=O)(=O)Nc1cccc(-c2ccc(OC)nn2)c1`: the survival was inactive: 84%.
As for `COc1ccc(NC(=O)c2c(C)oc3ccc(O)c(CN4CCCCCC4)c23)cc1`, the survival is inactive: 104%.
For `c1ccc(N2CCN(Cc3nnnn3Cc3ccc4c(c3)OCO4)CC2)cc1`, the survival was inactive: 87%.
For the compound `COCCn1c(C)cc(O)c(C(c2ccc(OC)cc2)N2CCN(c3ccccc3)CC2)c1=O` (stereo unspecified), the survival was inactive: 58%.
With `Cc1ccc(C)c(-n2nnc(C(=O)Nc3ccc(Br)cc3)c2C)c1`, the survival is active: 18%.
For `CS(=O)(=O)c1cccc(S(=O)(=O)c2cccc(S(C)(=O)=O)c2)c1`, the survival is inactive: 81%.
In the case of `COc1ccc(CCNC(=O)c2cc(=O)[nH]c3ccc(S(=O)(=O)N4CCCCC4C)cc23)cc1OC` (stereo unspecified), the survival is inactive: 117%.
With `Cc1cn2c(=O)cc(COC(=O)c3ccc(NC(=O)C(C)Oc4ccccc4)cc3)nc2s1` (stereo unspecified), the survival was active: 8%.
With `CCOCCCNC(=O)c1c(NC(=O)c2nc(SC)ncc2Cl)sc2c1CCCC2`, the survival is inactive: 64%.
On to `Cc1cc(C)nc(Nc2nc3ccccc3c(=O)[nH]2)n1`, for which the survival was active: 74%.
Then `O=C1CCCC/C1=C/Nc1ccc2c(c1)OCO2`, with inactive: 94%; and `O=C(Nc1cc(Cl)cc(Cl)c1)c1cc(S(=O)(=O)N2CCC3(CC2)OCCO3)ccc1F`, with inactive: 89%; and `O=C(NCCc1ccccc1)c1nn(-c2ccccc2Cl)nc1CO`, with inactive: 93%.
As to `COc1ccc(OC)c(NC(=O)CCNC(=O)Cn2cnc3ccccc3c2=O)c1`, the survival was inactive: 77%.
On to `CCOC(=O)c1c(N)n(-c2cc(C)cc(C)c2)c2nc3ccccc3nc12`, for which the survival was inactive: 57%.
Then `COc1ccc(-c2nc3ccc(Cl)cn3c2Nc2ccc(C)cc2)cc1`, with inactive: 55%; and `CCCCNC(=O)c1cn(C)c2ccc(S(=O)(=O)N3CCCC3)cc2c1=O`, with inactive: 139%; and `COc1ccc(OCC2c3cc(OC)c(OC)cc3CCN2C(=O)c2c(F)cccc2F)cc1` (stereo unspecified), with inactive: 112%.
Then `O=C1CCCc2c1[nH]c1ccccc21`, with inactive: 97%; and `CCc1ccc(-n2nc(CO)c(C(=O)NCc3cccs3)n2)cc1`, with inactive: 60%.
As to `Cc1cc2c(cc1S(=O)(=O)NCc1ccccc1Cl)OCC(=O)N2`, the survival was inactive: 84%.
As to `Cc1ccc(-n2ncc3c(Nc4cccc(C(F)(F)F)c4)ncnc32)cc1C`, the survival was inactive: 83%.
Take `COc1cccc(-c2nc(CS(=O)(=O)CC(=O)NCCc3ccc(Cl)cc3)c(C)o2)c1`: the survival is inactive: 63%.
Take `Cc1cc(C)cc(NC(=O)COCc2cc(-c3ccc4c(c3)OCO4)on2)c1`: the survival was inactive: 55%.
For `COc1cccc(N2CCN(C(=O)C3CCN(S(=O)(=O)c4cn(C)cn4)CC3)CC2)c1`, the survival was inactive: 144%.
As to `CCOCCn1c(=O)c2c(nc3n2CCN3c2ccc(C)c(C)c2)n(C)c1=O`, the survival was inactive: 91%.
With `CC1CCCCN1C(=O)CSc1c2c(nc3cc(Cl)ccc13)CCCC2` (stereo unspecified), the survival is active: -6%.
Consider `CC(C)c1ccc(NC(=O)c2cnc3sc(N4CCOCC4)nn3c2=O)cc1`, for which the survival is inactive: 98%.
Take `COc1ccc(OC)c(NC(=O)Cn2cnc3onc(-c4ccc(Cl)cc4)c3c2=O)c1`: the survival is inactive: 169%.
Turning to `COc1ccc(NC(=O)CN(C)S(=O)(=O)c2ccc3c(c2)c(=O)n(C)c(=O)n3C)cc1`, the survival is inactive: 130%.
Then `Cc1cc(C)n(-c2nc3ccccc3nc2Nc2cc(Cl)ccc2C)n1`, with inactive: 130%; and `Cc1cc(NC(=O)Nc2nnc(N3CCCCC3)s2)ccc1Br`, with inactive: 74%.

For the origin of these results see PubChem BioAssay AID463173 (ICCB-Longwood Screening Facility, Harvard Medical School, 2010).
